Data: the supplement of paper PMC9174493
Some of the results follow. Single values of this set are uncertain. Values with irradiation are relative to irradiated vehicle.

Legend:
[1] = test system: A549-Dual; test: NF-kB reporter (SEAP) activity, viability-corrected, relative to vehicle (fold change vs vehicle); higher = more activation of STING-IRF / NF-kB immune response reporter
[2] = test system: A549-Dual; test: ISRE reporter (Lucia luciferase) activity, viability-corrected, relative to vehicle (fold change vs vehicle); higher = more activation of STING-IRF / NF-kB immune response reporter
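Throughout, for NF-kB reporter (SEAP) activity, viability-corrected, relative to vehicle: viability correction based on the alamar blue assay, with concentrations leaving 10% survival or less dropped.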

Row | SMILES | NF-kB reporter ([1]; 0.1 µM, irradiation: 8 Gy/4 fr) | NF-kB reporter ([1]; 0.1 µM, irradiation: none) | NF-kB reporter ([1]; 0.3 µM, irradiation: 8 Gy/4 fr) | NF-kB reporter ([1]; 0.3 µM, irradiation: none) | NF-kB reporter ([1]; 1 µM, irradiation: 8 Gy/4 fr) | NF-kB reporter ([1]; 1 µM, irradiation: none) | NF-kB reporter ([1]; 3 µM, irradiation: 8 Gy/4 fr) | NF-kB reporter ([1]; 3 µM, irradiation: none) | NF-kB reporter ([1]; 10 µM, irradiation: 8 Gy/4 fr) | NF-kB reporter ([1]; 10 µM, irradiation: none) | ISRE reporter ([2]; 0.1 µM, irradiation: 8 Gy/4 fr) | ISRE reporter ([2]; 0.1 µM, irradiation: none) | ISRE reporter ([2]; 0.3 µM, irradiation: 8 Gy/4 fr) | ISRE reporter ([2]; 0.3 µM, irradiation: none) | ISRE reporter ([2]; 1 µM, irradiation: 8 Gy/4 fr) | ISRE reporter ([2]; 1 µM, irradiation: none) | ISRE reporter ([2]; 3 µM, irradiation: 8 Gy/4 fr) | ISRE reporter ([2]; 3 µM, irradiation: none) | ISRE reporter ([2]; 10 µM, irradiation: 8 Gy/4 fr) | ISRE reporter ([2]; 10 µM, irradiation: none)
1 | CCCCOc1ccc(CC(=O)NO)cc1 [Bufexamac] | 0.837 | 0.577 | 0.63 | 0.532 | 0.832 | 0.588 | 0.478 | 0.653 | 0.487 | 0.414 | 0.819 | 0.824 | 0.578 | 0.693 | 0.822 | 0.668 | 0.58 | 0.683 | 0.593 | 0.649
2 | C=CC(=O)Nc1cccc(Oc2nc(Nc3ccc(N4CCN(C)CC4)cc3)nc3ccsc23)c1 | 1.16 | 1.02 | 0.828 | 1.31 | 0.982 | 1.53 | 0.854 | 1.26 | 0.762 | 0.945 | 0.94 | 1.15 | 0.817 | 1.11 | 0.997 | 1.25 | 0.858 | 1.2 | 0.837 | 1.03
3 | Nc1cc(C(Cl)=C(Cl)Cl)c(S(N)(=O)=O)cc1S(N)(=O)=O [Clorsulon] | 1.39 | 1.25 | 1.05 | 1.73 | 1.1 | 1.79 | 1.22 | 1.35 | 1.05 | 1.09 | 1.18 | 1.29 | 1.11 | 1.24 | 1.07 | 1.17 | 1.21 | 0.979 | 1.14 | 1.09
4 | CC(C)(C)NCC(O)c1ccc(O)c(CO)c1 (stereo not given) [Salbutamol] | 0.768 | 0.45 | 0.638 | 0.437 | 0.899 | 0.72 | 0.409 | 0.565 | 0.524 | 0.948 | 0.715 | 0.737 | 0.578 | 0.668 | 0.907 | 1.07 | 0.571 | 0.644 | 0.711 | 1
5 | CCOCC(O)COc1ccc(NC(=O)CC[S+](C)C)cc1.Cc1ccc(S(=O)(=O)[O-])cc1 (stereo not given) [Suplatast Tosylate] | 1.15 | 1.74 | 1.25 | 1.59 | 1.3 | 1.31 | 1.86 | 1.36 | 1.03 | 1.61 | 1.14 | 1.49 | 0.986 | 1.52 | 0.974 | 1.3 | 0.83 | 0.908 | 0.23 | 0.51
6 | Cc1oncc1C(=O)Nc1ccc(C(F)(F)F)cc1 [Leflunomide] | 0.967 | 1.03 | 0.931 | 1.19 | 1.44 | 0.933 | 1.3 | 1.02 | 0.88 | 0.916 | 0.833 | 0.791 | 0.822 | 0.817 | 0.766 | 0.713 | 0.75 | 0.796 | 0.551 | 0.514
7 | CNC(=O)c1cc(Oc2ccc(NC(=O)Nc3ccc(Cl)c(C(F)(F)F)c3)c(F)c2)ccn1 [Regorafenib (BAY 73-4506)] | 1.06 | 1.04 | 1.07 | 1.23 | 0.765 | 1.15 | 0.919 | 0.979 | 0.735 | 0.847 | 0.805 | 0.839 | 0.888 | 0.847 | 0.645 | 0.735 | 0.297 | 0.41 | 0.206 | 0.284
8 | CC(C)(C)c1ccc(C(=O)CCCN2CCC(OC(c3ccccc3)c3ccccc3)CC2)cc1 [Ebastine] | 1.32 | 1.34 | 1.36 | 1.13 | 1.33 | 1.07 | 1.49 | 1.22 | 1.5 | 1.35 | 0.939 | 0.959 | 1.14 | 0.817 | 1.05 | 0.808 | 1.06 | 0.896 | 1.13 | 1.12
9 | Cc1ccc(Nc2nccc(N(C)c3ccc4c(C)n(C)nc4c3)n2)cc1S(N)(=O)=O [Pazopanib] | 1.02 | 1.08 | 0.884 | 1.17 | 0.84 | 1.45 | 0.73 | 1.27 | 0.687 | 1.02 | 0.929 | 0.906 | 0.848 | 0.811 | 0.779 | 0.878 | 0.553 | 0.736 | 0.563 | 0.846
10 | Cc1c(Cl)cccc1Nc1ccccc1C(=O)O [Tolfenamic Acid] | 0.909 | 1.36 | 0.888 | 1.44 | 1.27 | 1.13 | 1.47 | 1.11 | 1.07 | 0.891 | 1.07 | 0.95 | 0.964 | 1.22 | 1.02 | 1.01 | 0.913 | 1.08 | 1.19 | 1.17
11 | Cc1ccc(S(=O)(=O)O)cc1.NC(=O)c1cccc2cn(-c3ccc(C4CCCNC4)cc3)nc12 (stereo not given) [Niraparib (MK-4827) tosylate] | 1.16 | 0.963 | 0.809 | 1.05 | 0.973 | 1.61 | 0.783 | 1.37 | 0.9 | 1.15 | 0.966 | 0.989 | 0.81 | 1.29 | 0.987 | 1.37 | 0.692 | 2.32 | 0.733 | 2.25
12 | CCOC(=O)c1ccc(OC(=O)CCCCCNC(=N)N)cc1.CS(=O)(=O)O [Gabexate Mesylate] | 0.948 | 0.99 | 1.07 | 0.925 | 0.912 | 0.877 | 1.02 | 0.786 | 1.02 | 0.992 | 1.01 | 0.819 | 1.18 | 1.01 | 0.98 | 0.929 | 1.06 | 0.773 | 1.04 | 0.92
13 | CC(C(=O)O)c1ccc(C(=O)c2cccs2)cc1 (stereo not given) [Suprofen] | 0.786 | 0.75 | 0.839 | 1 | 1 | 0.791 | 1.07 | 0.826 | 0.749 | 0.904 | 0.802 | 0.698 | 0.77 | 0.867 | 0.693 | 0.801 | 0.746 | 0.811 | 0.713 | 0.901
14 | COc1cc2c3cc1Oc1c(OC)c(OC)cc4c1C(Cc1ccc(O)c(c1)Oc1ccc(cc1)CC3N(C)CC2)N(C)CC4.Cl.Cl (stereo not given) [Berbamine (dihydrochloride)] | 1.25 | 1.1 | 0.99 | 1.17 | 1.06 | 1.51 | 0.949 | 1.25 | 0.865 | 1.11 | 1.24 | 1.25 | 1.18 | 1.67 | 1.23 | 1.56 | 1.17 | 1.43 | 1.18 | 1.81
15 | CNC(=O)C(NC(=O)C(CC(C)C)C(O)C(=O)NO)C(C)(C)C (stereo not given) [Marimastat (BB-2516)] | 0.872 | 1.04 | 0.852 | 0.953 | 0.982 | 0.944 | 0.949 | 1.01 | 1.11 | 0.889 | 0.939 | 0.97 | 0.904 | 0.898 | 0.957 | 0.823 | 0.833 | 0.814 | 0.944 | 0.841
16 | CC1(C)OC2CC3C4CCC5=CC(=O)C=CC5(C)C4(F)C(O)CC3(C)C2(C(=O)CO)O1 (stereo not given) [Triamcinolone Acetonide] | 0.575 | 1.21 | 1.05 | 1.28 | 1.23 | 0.928 | 1.22 | 0.887 | 1 | 0.776 | 0.0575 | 0.267 | 0.0549 | 0.268 | 0.057 | 0.317 | 0.0498 | 0.397 | 0.0565 | 0.293
17 | CC(C)(O)c1ccccc1CCC(SCC1(CC(=O)O)CC1)c1cccc(/C=C/c2ccc3ccc(Cl)cc3n2)c1 (stereo not given) [Montelukast] | 1.17 | 0.775 | 0.898 | 0.66 | 0.719 | 0.658 | 0.571 | 0.716 | 0.578 | 0.512 | 0.971 | 0.896 | 0.758 | 0.709 | 0.912 | 0.665 | 0.631 | 0.762 | 0.638 | 0.643
18 | CCC(=O)OCC(=O)C1(OC(=O)CC)C(C)CC2C3CCC4=CC(=O)C=CC4(C)C3(Cl)C(O)CC21C (stereo not given) [Beclomethasone dipropionate] | 0.617 | 0.894 | 0.749 | 0.979 | 1.07 | 0.741 | 0.626 | 0.827 | 0.535 | 0.76 | 0.0865 | 0.231 | 0.0748 | 0.312 | 0.0499 | 0.157 | 0.0581 | 0.29 | 0.0641 | 0.233
19 | Cc1nc2ccc(CN(C)c3ccc(C(=O)NC(CCC(=O)O)C(=O)O)s3)cc2c(=O)[nH]1 (stereo not given) [Raltitrexed] | 1.27 | 1.79 | 1.4 | 1.99 | 1.2 | 1.69 | 1.4 | 1.89 | 1.33 | 1.53 | 0.643 | 2.2 | 0.733 | 2.6 | 0.591 | 2.29 | 0.659 | 2.76 | 0.632 | 2.05
20 | COc1ccc2cc(C(C)C(=O)O)ccc2c1 (stereo not given) [Naproxen] | 0.88 | 0.499 | 0.87 | 0.497 | 0.851 | 0.67 | 0.7 | 0.803 | 0.688 | 0.813 | 0.849 | 0.67 | 0.764 | 0.572 | 0.785 | 0.638 | 0.808 | 0.81 | 0.848 | 0.678
21 | Cn1cc(C2=C(c3cccc(N)c3)C(=O)NC2=O)c2ccccc21 | 0.979 | 1.36 | 0.783 | 1.71 | 0.949 | 2.15 | 0.595 | 1.27 | 0.583 | 1.08 | 1.13 | 1.13 | 0.924 | 1.29 | 0.916 | 1.29 | 0.181 | 0.497 | 0.131 | 0.494
22 | O=C(CCCc1ccccc1)[O][Na] [Sodium Phenylbutyrate] | 1.01 | 1.14 | 1.01 | 0.944 | 0.917 | 1.44 | 0.965 | 1.23 | 1.05 | 1.01 | 1.15 | 1.36 | 1.23 | 1.06 | 1.23 | 1.19 | 1.29 | 0.982 | 1.28 | 1.07
23 | CC(C(=O)[O-])c1cccc(Oc2ccccc2)c1.CC(C(=O)[O-])c1cccc(Oc2ccccc2)c1.[Ca+2] (stereo not given) [Fenoprofen Calcium] | 0.894 | 1.37 | 0.977 | 1.37 | 1.34 | 1.01 | 1.33 | 1 | 0.734 | 0.893 | 0.96 | 0.959 | 0.812 | 0.947 | 0.786 | 0.87 | 0.766 | 0.944 | 0.593 | 0.76
24 | CC(=O)[N-]S(=O)(=O)c1ccc(N)cc1.[Na+] [Sulfacetamide Sodium] | 1.01 | 1.28 | 1.03 | 1.14 | 1.05 | 0.949 | 1.47 | 0.988 | 0.742 | 0.438 | 1.03 | 1.31 | 1.01 | 1.23 | 1.03 | 0.979 | 0.897 | 0.953 | 0.791 | 0.696
